In the supplement of paper PMC11417369:
The list shows a part of the results.

tested on: PfSIP2 AP2 domain 1 (GST-tagged); test: gcPBM binding intensity (ln(normalized median fluorescence intensity)); higher = stronger DNA binding
Procedure, shortened: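 An Agilent 4 × 180k array of primer-extended double-stranded 36-bp intergenic genomic probes, with negative controls, was incubated for 1 h with GST-tagged P. falciparum DNA-binding domains expressed in E. coli. Alexa488 anti-GST antibody detected bound protein, scanned at 488 nm. Binding intensity is the highest Masliner-normalised natural-log median intensity across replicate spots of either probe orientation.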

Row | Sequence | gcPBM binding intensity (ln)
1 | GTATATATTAAAAAAAAAAAAAAAAAATTAAAATTA [CACACA_negctrl_site572] | 6.71
2 | GGAATATTAATAAGAGTGCATTTTGTATTCAATATG | 8.81
3 | AAAAAAAAAATTCATTGTACATATATATATATATAT [XGTACX_site8346] | 9.59
4 | TAGACTGGACATTAATGTACATAAATATATATGTAT [XGTACX_site7726] | 6.86
5 | TATAAGAAAAATAACACACACATAAACATATATACA [CACACA_site2785] | 7.08
6 | ATAAGAAGAAGAAAAACACACATATGTAGATATATA [CACACA_site7469] | 6.98
7 | TGGTTATTTATCTTTATTATAAATATTTACAAATAA [CACACA_negctrl_site1773] | 7.21
8 | ATATATATATATATATGTACTTATTTATATATTTAT [XGTACX_site7811] | 9.57
9 | ATGCTTCCTTAGGAATGTACACACATATATAATATG [XGTACX_site873] | 6.98
10 | ATAAAAATAAAAAACTGTACATACAAGATGTTACAG [XGTACX_site6690] | 6.85
11 | AAATAATATTTTACATGTACATAATAATTATTGGAT [XGTACX_site2783] | 7.07
12 | TAAATATTTAAATATTGTACTAGGTATAATTGAATA [XGTACX_site3604] | 6.79
13 | TTATTGTACTTGCTCGCATGCAATAAAAATATATTA [TGCATGCA_site580] | 7.01
14 | ATATATATAAACAAAAGTACATATATAAATTCATTT [XGTACX_site3482] | 7.46
15 | TCTTATATTATATTGTGTATTAAAATTTAACTTCAA [TGCATGCA_negctrl_site565] | 6.94
16 | TTAAAGTTACATTCGACACACACATAACAACTAAAT [CACACA_site9130] | 7.1
17 | ATATATGTATATATGTACATGAATATATAAAGAAAA [CACACA_negctrl_site315] | 7.16
18 | GTTTATATTTAATTTTTTTGTTTTTTTGTGTAATTC [XGTACX_negctrl_site194] | 6.77
19 | TATTTATACTAATATGCATGTAATCGAAATACAGCT [TGCATGCA_site457] | 6.98
20 | ACAAATAAATAAATATGTACTTAATTATATAATTGA [XGTACX_site5626] | 6.87
21 | ATCTATTCACACTTTTAAAAATTAAATATATTATAT [TGCATGCA_negctrl_site610] | 7.54
22 | TAATTTTTTTTTTATAGTACACATATTAAAGAATTA [XGTACX_site2485] | 7.02

Row | Sequence | gcPBM binding intensity (ln)
23 | AATAAAAAAAAAATATATATTTTTTTTTTTTTTTTT [CACACA_negctrl_site54] | 7.38
24 | TATATATATATATGTAGTACTTTACAAAATAATTCG [XGTACX_site5322] | 9.83
25 | TTATTTATACGCTATGAGTTTGATACAAACAATTAA [XGTACX_negctrl_site456] | 6.99
26 | TTTTTACGGAATTAGAGAAAAGAAATAAAAAAAAAA [XGTACX_negctrl_site436] | 6.84
27 | TAGTTATCACATTGCACACACATTTCCTTTTACATT [CACACA_site7589] | 7.29
28 | GCATAACCTTTATATTGTACATATACCTTTATTGTT [XGTACX_site6046] | 7.24
29 | AATAAATTCATGATAGTGCAAAAATTATTTTTGTTA | 8.49
30 | TTTTTTGTTATTTTCCGTTTTTTTCCATTATAATTT [GTGCAC_negctrl_site461] | 7.03
31 | TATTCAAAGAAAAACTGTACGTGTAGCCTACATCCT [XGTACX_site7707] | 6.71
32 | ACGTTAAAAACAAGTTGTACACAATAAATTATTCTT [XGTACX_site6321] | 7.27
33 | ATTATCCATCAAAAGGTGCAAATTTTTAATTATAAA [GTGCAC_site9932] | 11.1
34 | AAAGATGATAAAATATGTACACACAGTTTATACATT [XGTACX_site8703] | 6.88
35 | TGAGTCTTTTACATTGCACACACATTTCTTTCCTTT [CACACA_site8978] | 7.3
36 | AAAAAAATATATATATATATATATATATTATATATG [GTGCAC_negctrl_site654] | 7.49
37 | TTTAAAAAAAAAAAAAAAAAAAAAAAAAAAAATTTG [CACACA_negctrl_site1235] | 6.45
38 | TAATTATAGGTATACACACACATACATTTACATAAC [CACACA_site7509] | 7.47
39 | TTTTATTATTTTTGTTGTACAGTATACTGTATGATT [XGTACX_site5359] | 7.18
40 | ATATACTATTATGTGTGTACATAATAATTTATTATA [XGTACX_site3776] | 7.17
41 | AACAAACACAGACACACACACACACTAATATGATTA [CACACA_site8770] | 7.13
42 | TCATACATTTTCCTTGCACACATTTATAATTAATGG [CACACA_site4511] | 9.07
43 | TTATCACATTATTGCACACACATAAAGAAAAAAATA [CACACA_site2841] | 7.66
44 | AAAGATACTTTCCTCAAACACACAAAACTATACAAC [CACACA_site1475] | 7.12
